Measured values: article PMC6549176
These are yes or no findings as the source states them, for the method shown. For some of these results: Binding seen in cells or lysates may run through a third protein. Some binding calls cover weakened binding; strength is not graded here. Where a sequence is shown, tags or fusion partners need not be part of it.

Chains of the proteins cited; added tags and fusions are not shown.
UniProt P10961: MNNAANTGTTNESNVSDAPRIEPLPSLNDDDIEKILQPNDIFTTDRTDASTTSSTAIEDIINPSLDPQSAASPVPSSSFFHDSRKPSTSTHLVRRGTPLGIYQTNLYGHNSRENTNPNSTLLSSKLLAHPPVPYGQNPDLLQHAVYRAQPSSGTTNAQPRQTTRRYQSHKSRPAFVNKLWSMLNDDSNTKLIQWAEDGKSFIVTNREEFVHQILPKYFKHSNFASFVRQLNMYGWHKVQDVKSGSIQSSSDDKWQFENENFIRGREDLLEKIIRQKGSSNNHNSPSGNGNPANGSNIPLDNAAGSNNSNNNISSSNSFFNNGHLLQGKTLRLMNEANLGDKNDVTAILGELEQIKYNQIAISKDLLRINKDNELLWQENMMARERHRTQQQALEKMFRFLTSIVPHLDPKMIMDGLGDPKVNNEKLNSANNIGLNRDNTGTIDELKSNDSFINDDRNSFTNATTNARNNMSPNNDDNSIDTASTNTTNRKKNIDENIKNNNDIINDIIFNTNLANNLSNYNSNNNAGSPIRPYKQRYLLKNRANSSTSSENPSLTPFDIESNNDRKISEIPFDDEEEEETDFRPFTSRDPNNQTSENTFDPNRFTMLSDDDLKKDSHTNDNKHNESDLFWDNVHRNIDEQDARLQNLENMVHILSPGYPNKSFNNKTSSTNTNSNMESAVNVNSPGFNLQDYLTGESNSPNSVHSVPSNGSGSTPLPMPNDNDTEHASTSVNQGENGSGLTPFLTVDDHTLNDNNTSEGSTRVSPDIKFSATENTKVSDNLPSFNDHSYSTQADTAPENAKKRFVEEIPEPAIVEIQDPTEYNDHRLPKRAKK
UniProt P39081: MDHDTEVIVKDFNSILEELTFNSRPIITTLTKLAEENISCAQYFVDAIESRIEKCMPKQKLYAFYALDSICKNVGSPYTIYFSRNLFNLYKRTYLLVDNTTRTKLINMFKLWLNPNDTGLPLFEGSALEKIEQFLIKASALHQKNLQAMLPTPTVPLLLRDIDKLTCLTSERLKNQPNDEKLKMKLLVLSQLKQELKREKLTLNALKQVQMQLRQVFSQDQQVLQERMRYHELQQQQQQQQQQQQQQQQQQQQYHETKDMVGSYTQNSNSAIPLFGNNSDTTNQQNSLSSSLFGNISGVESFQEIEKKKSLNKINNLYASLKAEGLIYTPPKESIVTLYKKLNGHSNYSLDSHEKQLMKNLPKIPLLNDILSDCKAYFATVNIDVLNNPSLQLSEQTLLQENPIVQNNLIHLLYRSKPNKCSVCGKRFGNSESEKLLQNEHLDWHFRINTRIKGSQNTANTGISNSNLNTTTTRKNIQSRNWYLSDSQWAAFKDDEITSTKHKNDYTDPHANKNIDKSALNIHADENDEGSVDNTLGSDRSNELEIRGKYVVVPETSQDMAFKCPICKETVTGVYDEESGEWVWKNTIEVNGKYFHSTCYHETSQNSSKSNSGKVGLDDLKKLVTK

T1: GST-tagged Yra1p (S. cerevisiae) (UniProt Q12159)
T1 sequence: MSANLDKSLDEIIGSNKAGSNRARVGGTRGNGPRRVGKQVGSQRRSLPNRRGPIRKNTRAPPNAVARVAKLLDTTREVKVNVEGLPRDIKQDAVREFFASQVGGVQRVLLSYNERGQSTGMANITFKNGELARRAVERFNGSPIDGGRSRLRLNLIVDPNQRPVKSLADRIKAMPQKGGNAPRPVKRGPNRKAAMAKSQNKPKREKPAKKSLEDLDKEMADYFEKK

T2: Yra1p-5xFLAG (S. cerevisiae) (UniProt Q12159)
T2 sequence: T1 sequence

T3: Rrp6p-5xFLAG (S. cerevisiae) (UniProt Q12149)
T3 sequence: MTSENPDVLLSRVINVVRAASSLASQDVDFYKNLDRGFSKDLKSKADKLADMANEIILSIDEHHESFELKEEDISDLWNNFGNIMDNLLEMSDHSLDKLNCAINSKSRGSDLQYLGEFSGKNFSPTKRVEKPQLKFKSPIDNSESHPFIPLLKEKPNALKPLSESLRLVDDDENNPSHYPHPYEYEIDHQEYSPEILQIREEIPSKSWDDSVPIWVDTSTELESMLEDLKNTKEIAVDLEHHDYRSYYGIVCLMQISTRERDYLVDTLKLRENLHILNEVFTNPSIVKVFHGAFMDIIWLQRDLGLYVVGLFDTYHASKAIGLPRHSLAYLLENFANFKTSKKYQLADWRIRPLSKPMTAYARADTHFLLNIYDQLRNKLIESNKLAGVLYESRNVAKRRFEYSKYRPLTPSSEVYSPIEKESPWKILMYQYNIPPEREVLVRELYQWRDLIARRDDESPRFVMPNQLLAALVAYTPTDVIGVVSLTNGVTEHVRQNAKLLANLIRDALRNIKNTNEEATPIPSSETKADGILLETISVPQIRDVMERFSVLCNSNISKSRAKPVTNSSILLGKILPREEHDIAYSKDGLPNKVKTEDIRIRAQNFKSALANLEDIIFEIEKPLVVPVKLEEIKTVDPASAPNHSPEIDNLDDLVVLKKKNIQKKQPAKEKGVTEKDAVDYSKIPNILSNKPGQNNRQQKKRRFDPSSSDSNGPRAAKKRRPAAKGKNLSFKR

T4: Sub2p (S. cerevisiae) (UniProt Q07478)
T4 sequence: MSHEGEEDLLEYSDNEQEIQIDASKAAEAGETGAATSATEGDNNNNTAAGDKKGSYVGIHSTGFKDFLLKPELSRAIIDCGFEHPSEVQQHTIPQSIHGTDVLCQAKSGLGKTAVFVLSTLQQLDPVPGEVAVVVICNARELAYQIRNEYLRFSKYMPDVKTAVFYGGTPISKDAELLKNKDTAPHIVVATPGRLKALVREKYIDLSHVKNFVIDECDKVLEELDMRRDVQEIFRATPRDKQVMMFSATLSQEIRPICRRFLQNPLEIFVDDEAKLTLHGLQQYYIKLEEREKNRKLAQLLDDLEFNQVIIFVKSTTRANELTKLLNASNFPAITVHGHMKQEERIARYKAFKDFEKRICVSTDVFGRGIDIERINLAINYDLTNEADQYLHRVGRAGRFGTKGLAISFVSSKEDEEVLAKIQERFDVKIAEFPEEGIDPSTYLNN

T5: GST-Yra1p RRM (S. cerevisiae) (UniProt Q12159)
T5 sequence: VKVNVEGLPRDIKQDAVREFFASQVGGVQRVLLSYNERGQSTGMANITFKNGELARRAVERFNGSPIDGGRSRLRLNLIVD

B1: gel-filtration-purified Sgf73-DUBm (SAGA deubiquitylating module) (complex, UniProt P53165 1-657; P50102 1-471; Q03067 1-99; Q6WNK7 1-96)
chain 1: MRSGDAEIKGIKPKVIEEYSLSQGSGPSNDSWKSLMSSAKDTPLQYDHMNRESLKKYFNPNAQLIEDPLDKPIQYRVCEKCGKPLALTAIVDHLENHCAGASGKSSTDPRDESTRETIRNGVESTGRNNNDDDNSNDNNNDDDDDDDNDDNEDDDDADDDDDNSNGANYKKNDSSFNPLKRSTSMESANTPNMDTKRSKTGTPQTFSSSIKKQKKVKQRNPTEKHLIDFNKQCGVELPEGGYCARSLTCKSHSMGAKRAVSGRSKPYDVLLADYHREHQTKIGAAAEKRAKQQELQKLQKQIQKEQKKHTQQQKQGQRSKQRNVNGGKSAKNGGKSTVHNGNNINEIGHVNLTPEEETTQVLNGVSRSFPLPLESTVLSSVRYRTKYFRMREMFASSFSVKPGYTSPGYGAIHSRVGCLDLDRTTDYKFRVRTPQPINHLTNQNLNPKQIQRLQQQRALQAQLLSQQQQQQQQQQQHHSPQAQAQASTQQPTQGMVPNHFPGGATNSSFNANVSSKQIQQQQQQQQHKSQDTGLTPLEIQSQQQKLRQQQLQQQKFEAAASYLANATKLMQESNQDSHLSGTHNNNSSKNGNNNLMTMKASISSPNTSVNSIQSPPSVNSVNGSGQGVSTGINVSGNNGRIEVGIGNSVNPYNGRIN
chain 2: MSICPHIQQVFQNEKSKDGVLKTCNAARYILNHSVPKEKFLNTMKCGTCHEINSGATFMCLQCGFCGCWNHSHFLSHSKQIGHIFGINSNNGLLFCFKCEDYIGNIDLINDAILAKYWDDVCTKTMVPSMERRDGLSGLINMGSTCFMSSILQCLIHNPYFIRHSMSQIHSNNCKVRSPDKCFSCALDKIVHELYGALNTKQASSSSTSTNRQTGFIYLLTCAWKINQNLAGYSQQDAHEFWQFIINQIHQSYVLDLPNAKEVSRANNKQCECIVHTVFEGSLESSIVCPGCQNNSKTTIDPFLDLSLDIKDKKKLYECLDSFHKKEQLKDFNYHCGECNSTQDAIKQLGIHKLPSVLVLQLKRFEHLLNGSNRKLDDFIEFPTYLNMKNYCSTKEKDKHSENGKVPDIIYELIGIVSHKGTVNEGHYIAFCKISGGQWFKFNDSMVSSISQEEVLKEQAYLLFYTIRQVN
chain 3: MTEETITIDSISNGILNNLLTTLIQDIVARETTQQQLLKTRYPDLRSYYFDPNGSLDINGLQKQQESSQYIHCENCGRDVSANRLAAHLQRCLSRGARR
chain 4: MTMDTAQLKSQIQQYLVESGNYELISNELKARLLQEGWVDKVKDLTKSEMNINESTNFTQILSTVEPKALEMVSDSTRETVLKQIREFLEEIVDTQ
B2: Sgf73p-13xMYC (protein, UniProt P53165 1-657)
chain: B1 chain 1
B3: Ada1p (protein, UniProt Q12060 1-488)
chain: MSAIQSPAPKPLQPTYPAASPASTNAYMKPGLIGSPAVSNHTEPNNGNNETAEPQGPNQRIDLGAMIEELTSLLGKESWTKYAQIISLFILGKLSRKELSNELELVFSPSAASLEKSNTNHHHSLVRLHNQLLLGIFANSLRENPLGRNGNESSWGFGNGSNNPNNKLKRINKHNSQIEVYKKIVMSLPLNDRNRLKMITKEAGKRGFIFCSVFQARLNNIPKIPIVTNPESLKRVKSNNLKTPLEWSQDIMNGFNVPLASESHSLPDTDSFYLRMVGIAREHGLVGTVDARCVELISLALDQYLKNIIEFTIDTVRYRRKKYSDYYDLNESGLYKSVSEMAADKRDAKIKQLDDDKNEDECADEAKSINNGNNSSKDDIGDISMSSITKAGEAVNEELHENRTISLTNEDIYDSLSIFPNLVEPSGSYYALTNLGLVNDDELVDMKSNIDDLPDFLNEKPTFTPLDERNVGTRHELNWLIKGILTED
B4: Spt20p (protein, UniProt P50875 1-604)
chain: MSANSPTGNDPHVFGIPVNATPSNMGSPGSPVNVPPPMNPAVANVNHPVMRTNSNSNANEGTRTLTREQIQQLQQRQRLLLQQRLLEQQRKQQALQNYEAQFYQMLMTLNKRPKRLYNFVEDADSILKKYEQYLHSFEFHIYENNYKICAPANSRLQQQQKQPELTSDGLILTKNNETLKEFLEYVARGRIPDAIMEVLRDCNIQFYEGNLILQVYDHTNTVDVTPKENKPNLNSSSSPSNNNSTQDNSKIQQPSEPNSGVANTGANTANKKASFKRPRVYRTLLKPNDLTTYYDMMSYADNARFSDSIYQQFESEILTLTKRNLSLSVPLNPYEHRDMLEETAFSEPHWDSEKKSFIHEHRAESTREGTKGVVGHIEERDEFPQHSSNYEQLMLIMNERTTTITNSTFAVSLTKNAMEIASSSSNGVRGASSSTSNSASNTRNNSLANGNQVALAAAAAAAAVGSTMGNDNNQFSRLKFIEQWRINKEKRKQQALSANINPTPFNARISMTAPLTPQQQLLQRQQQALEQQQNGGAMKNANKRSGNNATSNNNNNNNNLDKPKVKRPRKNAKKSESGTPAPKKKRMTKKKQSASSTPSSTTMS
B5: recombinant Sgf73p (MBP-Sgf73p) (protein, UniProt P53165 1-657)
chain: B1 chain 1
B6: Sus1p (FLAG-tagged, subunit of the purified Sgf73-DUBm) (protein, UniProt Q6WNK7 1-96)
chain: B1 chain 4

Legend:
[1] = biological target: T1, GST-tagged Yra1p (S. cerevisiae); assay: pull-down; GST-tagged Yra1p or its subfragments as bait (1 µg) on beads, 200 ng target protein; 50 mM HEPES-KOH pH 7.5, 150 mM NaCl, 10% glycerol, 0.1% NP40, 0.5 mM DTT, 1 mM EDTA; 4 °C, 2 h; Western blotting; both purified
[2] = biological target: T2, Yra1p-5xFLAG (S. cerevisiae); assay: co-IP; yeast lysates in NP40 lysis buffer (1% NP40, 150 mM NaCl, 2 mM EDTA), IgG or anti-FLAG M2 beads, 4 °C, 2 h; Western blotting; wildtype cells (also rpt2-1 cells for Sgf73p-Yra1p; also sgf73Δ cells for Ada1p and Spt20p)
[3] = biological target: T3, Rrp6p-5xFLAG (S. cerevisiae); assay: as above
Hsf1p (S. cerevisiae) = Hsf1p (S. cerevisiae) (UniProt P10961); assay: as above
[4] = biological target: Pcf11p (in yeast cells) (S. cerevisiae) (UniProt P39081); assay: as above
Sub2p (S. cerevisiae) = biological target: T4, Sub2p (S. cerevisiae); assay: as above
[5] = biological target: T5, GST-Yra1p RRM (S. cerevisiae); assay: pull-down; GST-tagged Yra1p or its subfragments as bait (1 µg) on beads, 200 ng target protein; 50 mM HEPES-KOH pH 7.5, 150 mM NaCl, 10% glycerol, 0.1% NP40, 0.5 mM DTT, 1 mM EDTA; 4 °C, 2 h; Western blotting; both purified

Row | Binder | binding [1] | binding [2] | also measured
1 | B1 | binds | – | –
2 | B2 | – | binds | binding [3]: binds; binding (Hsf1p (S. cerevisiae)): binds; binding [4]: no binding; binding (Sub2p (S. cerevisiae)): binds
3 | B3 | – | binds | –
4 | B4 | – | binds | –
5 | B5 | – | – | binding [5]: no binding
6 | B6 | no binding | – | –
